M. abscessus ATCC 19977 and its deletion, point and complemented mutants after 5 days of drug at 37 °C plus 24 h of resazurin. Growth in % of untreated wells at the dose given (lower = more inhibition); checkerboards give % inhibition (higher = more inhibition); IC50 from the fitted curve (lower = more potent). No active / inactive call. IC50 values come from the same 384-well curves. Growth is not capped and can exceed 100%. The direction of the checkerboard scale is read from the raw signals. Capreomycin is a mixture.
Tests used:
Experiment in all cases: growth relative to untreated wells; higher = more growth (less inhibition)
[1] = test system: Mycobacterium abscessus ATCC 19977 WhiB7 T70fs
Description: (§1)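 384-well two-fold dose series, two replicates; 5 days at 37 °C, then 24 h with resazurin; fluorescence scaled to growth and killed controls.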

[2] = test system: Mycobacterium abscessus ATCC 19977
Description: as §1

[3] = test system: Mycobacterium abscessus ATCC 19977 Δeis2
Description: as §1

[4] = test system: Mycobacterium abscessus ATCC 19977 Eis2 Y227D
Description: as §1

[5] = test system: Mycobacterium abscessus ATCC 19977 ΔwhiB7
Description: as §1

[6] = test system: Mycobacterium abscessus ATCC 19977 WhiB7 L37P
Description: as §1

[7] = test system: Mycobacterium abscessus ATCC 19977 Eis2 T258R
Description: as §1

[8] = test system: Mycobacterium abscessus ATCC 19977 Eis2 Y284*
Description: as §1

[9] = test system: Mycobacterium abscessus ATCC 19977 Eis2 E120fs
Description: as §1

[10] = test system: Mycobacterium abscessus ATCC 19977 WhiB7 F24fs
Description: as §1

[11] = test system: Mycobacterium abscessus ATCC 19977 WhiB7 R76del
Description: as §1

[12] = test system: Mycobacterium abscessus ATCC 19977 Eis2 Y255*
Description: as §1

CC(=O)NC[C@H]1CN(c2ccc(N3CCOCC3)c(F)c2)C(=O)O1 [linezolid]
Conditions	growth [%]
[1], 0.125 µg/mL	91
[1], 0.25 µg/mL	107
[1], 0.5 µg/mL	96.4
[1], 1 µg/mL	110
[1], 2 µg/mL	116
[1], 4 µg/mL	39.1
[1], 8 µg/mL	6.38
[1], 16 µg/mL	-4.91
[1], 32 µg/mL	-5.61
[1], 64 µg/mL	-4.54
[1], 128 µg/mL	-4.77
[1], 256 µg/mL	-4.13
[2], 0.125 µg/mL	96.14
[2], 0.25 µg/mL	100.2
[2], 0.5 µg/mL	102
[2], 1 µg/mL	108
[2], 2 µg/mL	102
[2], 4 µg/mL	24.6
[2], 8 µg/mL	3.06
[2], 16 µg/mL	-2.3
[2], 32 µg/mL	-2.87
[2], 64 µg/mL	2.51
[2], 128 µg/mL	-2.46
[2], 256 µg/mL	-1.75
[3], 0.125 µg/mL	90.4
[3], 0.25 µg/mL	99.35
[3], 0.5 µg/mL	95.8
[3], 1 µg/mL	108
[3], 2 µg/mL	96
[3], 4 µg/mL	24.9
[3], 8 µg/mL	5.89
[3], 16 µg/mL	-3.91
[3], 32 µg/mL	-4.067
[3], 64 µg/mL	5.75
[3], 128 µg/mL	-3.57
[3], 256 µg/mL	-3.14
[4], 0.125 µg/mL	99.1
[4], 0.25 µg/mL	104
[4], 0.5 µg/mL	109
[4], 1 µg/mL	119
[4], 2 µg/mL	119
[4], 4 µg/mL	52.2
[4], 8 µg/mL	8.42
[4], 16 µg/mL	-0.55
[4], 32 µg/mL	-2.38
[4], 64 µg/mL	-1.27
[4], 128 µg/mL	-1.84
[4], 256 µg/mL	-0.956
[5], 0.125 µg/mL	91.4
[5], 0.25 µg/mL	91.4
[5], 0.5 µg/mL	94.345
[5], 1 µg/mL	112
[5], 2 µg/mL	126
[5], 4 µg/mL	73.9
[5], 8 µg/mL	10.9
[5], 16 µg/mL	-2.35
[5], 32 µg/mL	-5.07
[5], 64 µg/mL	-5.38
[5], 128 µg/mL	-4.91
[5], 256 µg/mL	-5.5
[6], 0.125 µg/mL	99.8
[6], 0.25 µg/mL	104
[6], 0.5 µg/mL	107
[6], 1 µg/mL	115.3
[6], 2 µg/mL	118
[6], 4 µg/mL	63.9
[6], 8 µg/mL	11.6
[6], 16 µg/mL	-1.59
[6], 32 µg/mL	-3.09
[6], 64 µg/mL	-3.12
[6], 128 µg/mL	-2.64
[6], 256 µg/mL	-2.49
[7], 0.125 µg/mL	83.8
[7], 0.25 µg/mL	99.6
[7], 0.5 µg/mL	96.3
[7], 1 µg/mL	110
[7], 2 µg/mL	102
[7], 4 µg/mL	20.4
[7], 8 µg/mL	1.1
[7], 16 µg/mL	-2.86
[7], 32 µg/mL	-3.21
[7], 64 µg/mL	-3.31
[7], 128 µg/mL	-3.52
[7], 256 µg/mL	-3
[8], 0.125 µg/mL	97.09
[8], 0.25 µg/mL	100.9
[8], 0.5 µg/mL	104.2
[8], 1 µg/mL	111.8
[8], 2 µg/mL	110.5
[8], 4 µg/mL	19.3
[8], 8 µg/mL	1.53
[8], 16 µg/mL	-2.62
[8], 32 µg/mL	-3.83
[8], 64 µg/mL	-2.98
[8], 128 µg/mL	-2.93
[8], 256 µg/mL	-2.81
[9], 0.125 µg/mL	93.06
[9], 0.25 µg/mL	106
[9], 0.5 µg/mL	109
[9], 1 µg/mL	118
[9], 2 µg/mL	120
[9], 4 µg/mL	35.5
[9], 8 µg/mL	2.29
[9], 16 µg/mL	-2.349
[9], 32 µg/mL	1.87
[9], 64 µg/mL	-2.954
[9], 128 µg/mL	-3.07
[9], 256 µg/mL	-2.64
[10], 0.125 µg/mL	98.3
[10], 0.25 µg/mL	104
[10], 0.5 µg/mL	100
[10], 1 µg/mL	113
[10], 2 µg/mL	113
[10], 4 µg/mL	34.7
[10], 8 µg/mL	5.68
[10], 16 µg/mL	-3.04
[10], 32 µg/mL	-2.78
[10], 64 µg/mL	-2.86
[10], 128 µg/mL	-2.79
[10], 256 µg/mL	-2.61
[11], 0.125 µg/mL	99.8
[11], 0.25 µg/mL	102.9
[11], 0.5 µg/mL	102
[11], 1 µg/mL	113.6
[11], 2 µg/mL	115
[11], 4 µg/mL	35.8
[11], 8 µg/mL	6.14
[11], 16 µg/mL	-2.69
[11], 32 µg/mL	-3.1
[11], 64 µg/mL	-2.89
[11], 128 µg/mL	-3.08
[11], 256 µg/mL	-2.45
[12], 0.125 µg/mL	95.5
[12], 0.25 µg/mL	100
[12], 0.5 µg/mL	102.6
[12], 1 µg/mL	110
[12], 2 µg/mL	115
[12], 4 µg/mL	33.8
[12], 8 µg/mL	3.81
[12], 16 µg/mL	-3.98
[12], 32 µg/mL	-4.78
[12], 64 µg/mL	-4.33
[12], 128 µg/mL	-4.25
[12], 256 µg/mL	-4.11

Source: the supplement of paper PMC12578646, “Prodrug florfenicol amine is activated by intrinsic resistance to target Mycobacterium abscessus” (Nature Microbiology, 2025)
